Assay results: patent US20160222087A1 (NOVOZYMES BIOPHARMA DK A S, published 2016)

Assays:
[1] = biological target: T1, shFcRn-HIS (shFcRn with a 6-His tail on the C-terminus of beta-2-microglobulin) (human, UniProt P55899 partial chain; P61769 partial chain); experiment: SPR (Biacore 3000), albumin over immobilized shFcRn-HIS, pH 5.5, 25 C; second row for this variant
[2] = biological target: T1, shFcRn-HIS (shFcRn with a 6-His tail on …); experiment: SPR (Biacore 3000), albumin over immobilized shFcRn-HIS, pH 5.5, 25 C

T1 sequence (P55899 24-290 limits assumed, chain 1 of 2): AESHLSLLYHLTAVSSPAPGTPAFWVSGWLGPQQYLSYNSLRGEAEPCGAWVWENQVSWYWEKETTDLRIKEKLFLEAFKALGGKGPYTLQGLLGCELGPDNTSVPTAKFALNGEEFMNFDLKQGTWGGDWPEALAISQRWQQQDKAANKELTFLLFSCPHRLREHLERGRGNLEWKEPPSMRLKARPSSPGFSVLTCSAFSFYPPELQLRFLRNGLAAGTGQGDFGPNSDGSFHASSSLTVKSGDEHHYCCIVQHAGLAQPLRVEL
T1 sequence (P61769 other isoform, or with tags, fused parts or gaps limits assumed, chain 2 of 2, further chain): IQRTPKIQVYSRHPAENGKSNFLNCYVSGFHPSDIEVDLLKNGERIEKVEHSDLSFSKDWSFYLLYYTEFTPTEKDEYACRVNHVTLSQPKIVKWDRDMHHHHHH

Row | Binder | Fold difference relative to WT HSA [1] | Fold difference relative to WT HSA [2]
1 | HSA L345E (ligand) not shown | 1 fold | 1.1 fold
2 | HSA S342Y (ligand) not shown | 1.8 fold | 1.9 fold
3 | HSA V381G (ligand) not shown | 2.2 fold | 1.6 fold
4 | HSA L349F (ligand) not shown | 4.3 fold | 4.3 fold
